This is one part of the list. Interaction screen of human proteins with wild-type SARS-CoV-2 proteins by split-DHFR complementation in yeast, 1 µg/mL methotrexate. Value = fitness of the pair (three or more lineages) minus that of the viral protein without a human partner, on a scale set by negative (0) and fused positive (1) controls, mean of up to three cultures; higher = more likely to interact. Active = false discovery rate below 0.05 (one-sided t-test) in at least one culture. Nearly all pairs are not hits, and differences among them are mostly noise (correlation between cultures about 0.3); most hits were seen in one culture only. Human sequences are the Swiss-Prot entries looked up by gene name; the clone may be another isoform. NSP2 values were corrected by the authors for a growth advantage. Listed are human proteins with a hit and a random twelfth of the others.
What was measured:
Experiment in all cases: yeast fitness gain over the viral ORF with no human partner (scaled fitness); higher = more likely to interact
[1] = biological target: SARS-CoV-2 NSP13
Procedure: (§1)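 Split mouse DHFR complementation in pooled diploid yeast: human ORFeome clones carry one fragment and viral ORFs the other; barcoded lineages compete in 1 µg/mL methotrexate and fitness is read by barcode sequencing in up to three cultures.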

[2] = biological target: SARS-CoV-2 ORF6
Procedure: as §1

[3] = biological target: SARS-CoV-2 ORF7B
Procedure: as §1

[4] = biological target: SARS-CoV-2 ORF9B
Procedure: as §1

[5] = biological target: SARS-CoV-2 NSP7
Procedure: as §1

[6] = biological target: SARS-CoV-2 NSP9
Procedure: as §1

[7] = biological target: SARS-CoV-2 ORF8
Procedure: as §1

[8] = biological target: SARS-CoV-2 NSP2
Procedure: as §1

[9] = biological target: SARS-CoV-2 ORF10
Procedure: as §1

[10] = biological target: SARS-CoV-2 ORF3B
Procedure: as §1

Measured: yeast fitness gain

B1: LRP2BP, Q9P2M1 (protein)
chain: MKLTSEKLPKNPFYASVSQYAAKNQKFFQWKKEKTDYTHANLVDKALQLLKERILKGDTLAYFLRGQLYFEEGWYEEALEQFEEIKEKDHQATYQLGVMYYDGLGTTLDAEKGVDYMKKILDSPCPKARHLKFAAAYNLGRAYYEGKGVKRSNEEAERLWLIAADNGNPKASVKAQSMLGLYYSTKEPKELEKAFYWHSEACGNGNLESQGALGLMYLYGQGIRQDTEAALQCLREAAERGNVYAQGNLVEYYYKMKFFTKCVAFSKRIADYDEVHDIPMIAQVTDCLPEFIGRGMAMASFYHARCLQLGLGITRDETTAKHYYSKACRLNPALADELHSLLIRQRI
inactive: [1] -0.194

B2: ISLR, O14498 (protein)
chain: MQELHLLWWALLLGLAQACPEPCDCGEKYGFQIADCAYRDLESVPPGFPANVTTLSLSANRLPGLPEGAFREVPLLQSLWLAHNEIRTVAAGALASLSHLKSLDLSHNLISDFAWSDLHNLSALQLLKMDSNELTFIPRDAFRSLRALRSLQLNHNRLHTLAEGTFTPLTALSHLQINENPFDCTCGIVWLKTWALTTAVSIPEQDNIACTSPHVLKGTPLSRLPPLPCSAPSVQLSYQPSQDGAELRPGFVLALHCDVDGQPAPQLHWHIQIPSGIVEITSPNVGTDGRALPGTPVASSQPRFQAFANGSLLIPDFGKLEEGTYSCLATNELGSAESSVDVALATPGEGGEDTLGRRFHGKAVEGKGCYTVDNEVQPSGPEDNVVIIYLSRAGNPEAAVAEGVPGQLPPGLLLLGQSLLLFFFLTSF
inactive: [1] -0.149 | [2] -0.264 | [3] -0.0188 | [4] -0.14

B3: KCTD12, Q96CX2 (protein)
chain: MALADSTRGLPNGGGGGGGSGSSSSSAEPPLFPDIVELNVGGQVYVTRRCTVVSVPDSLLWRMFTQQQPQELARDSKGRFFLDRDGFLFRYILDYLRDLQLVLPDYFPERSRLQREAEYFELPELVRRLGAPQQPGPGPPPSRRGVHKEGSLGDELLPLGYSEPEQQEGASAGAPSPTLELASRSPSGGAAGPLLTPSQSLDGSRRSGYITIGYRGSYTIGRDAQADAKFRRVARITVCGKTSLAKEVFGDTLNESRDPDRPPERYTSRYYLKFNFLEQAFDKLSESGFHMVACSSTGTCAFASSTDQSEDKIWTSYTEYVFCRE
inactive: [1] -0.37 | [5] -0.0271 | [6] 0.0307 | [7] 0.0162

B4: PPIL1, Q9Y3C6 (protein)
chain: MAAIPPDSWQPPNVYLETSMGIIVLELYWKHAPKTCKNFAELARRGYYNGTKFHRIIKDFMIQGGDPTGTGRGGASIYGKQFEDELHPDLKFTGAGILAMANAGPDTNGSQFFVTLAPTQWLDGKHTIFGRVCQGIGMVNRVGMVETNSQDRPVDDVKIIKAYPSG
inactive: [1] -0.333 | [8] -0.282 | [9] -0.131 | [10] -0.0615 | [2] 0.0636 | [3] -0.205 | [7] -0.0943 | [4] -0.0581

B5: MLPH, Q9BV36 (protein)
chain: MGKKLDLSKLTDEEAQHVLEVVQRDFDLRRKEEERLEALKGKIKKESSKRELLSDTAHLNETHCARCLQPYQLLVNSKRQCLECGLFTCKSCGRVHPEEQGWICDPCHLARVVKIGSLEWYYEHVKARFKRFGSAKVIRSLHGRLQGGAGPELISEERSGDSDQTDEDGEPGSEAQAQAQPFGSKKKRLLSVHDFDFEGDSDDSTQPQGHSLHLSSVPEARDSPQSLTDESCSEKAAPHKAEGLEEADTGASGCHSHPEEQPTSISPSRHGALAELCPPGGSHRMALGTAAALGSNVIRNEQLPLQYLADVDTSDEESIRAHVMASHHSKRRGRASSESQIFELNKHISAVECLLTYLENTVVPPLAKGLGAGVRTEADVEEEALRRKLEELTSNVSDQETSSEEEEAKDEKAEPNRDKSVGPLPQADPEVGTAAHQTNRQEKSPQDPGDPVQYNRTTDEELSELEDRVAVTASEVQQAESEVSDIESRIAALRAAGLTVKPSGKPRRKSNLPIFLPRVAGKLGKRPEDPNADPSSEAKAMAVPYLLRRKFSNSLKSQGKDDDSFDRKSVYRGSLTQRNPNARKGMASHTFAKPVVAHQS
inactive: [1] -0.342 | [2] -0.129

B6: SLC24A5, Q71RS6 (protein)
chain: MQTKGGQTWARRALLLGILWATAHLPLSGTSLPQRLPRATGNSTQCVISPSSEFPEGFFTRQERRDGGIIIYFLIIVYMFMAISIVCDEYFLPSLEIISESLGLSQDVAGTTFMAAGSSAPELVTAFLGVFITKGDIGISTILGSAIYNLLGICAACGLLSNTVSTLSCWPLFRDCAAYTISAAAVLGIIYDNQVYWYEGALLLLIYGLYVLVLCFDIKINQYIIKKCSPCCACLAKAMERSEQQPLMGWEDEGQPFIRRQSRTDSGIFYEDSGYSQLSISLHGLSQVSEDPPSVFNMPEADLKRIFWVLSLPIITLLFLTTPDCRKKFWKNYFVITFFMSAIWISAFTYILVWMVTITGETLEIPDTVMGLTLLAAGTSIPDTIASVLVARKGKGDMAMSNIVGSNVFDMLCLGIPWFIKTAFINGSAPAEVNSRGLTYITISLNISIIFLFLAVHFNGWKLDRKLGIVCLLSYLGLATLSVLYELGIIGNNKIRGCGG
inactive: [1] -0.214 | [7] -0.000582 | [4] 0.0097

Reference: the supplement of paper PMC11741623
